According to ChEMBL document CHEMBL1201862, “PubChem BioAssay data set” (2004):

tested on: NCI-H322M; assay: DTP human tumour cell line panel, 48 h

Row | SMILES | GI50
1 | COc1ccc(Nc2nn3c(=O)c4c(C)c(C)sc4nc3s2)cc1 | inactive: 31.2 µM
2 | CN(C)C(=S)/N=c1\ssc(=S)n1Cc1cccs1 | inactive: 4.19 µM
3 | Cc1ccsc1/C=N/Nc1cnccn1 | inactive: > 100 µM
4 | COC1(OC)CC(CO)(CNc2nc(N)nc(Cl)c2/C=N\O)C1 | inactive: 35.6 µM
5 | COc1ccc(CC#N)c(OCc2ccccc2)c1 | inactive: 5.35 µM
6 | Nn1c(-c2ccccc2)n[nH]c1=O | inactive: > 100 µM
7 | C=CCc1cc(-c2cc(CC=C)c(O)c(CNC)c2)cc(CNC)c1O | inactive: 17 µM
8 | O=c1[nH]c2nccn2c(Cl)c1Br | inactive: 21.6 µM
9 | CCOC(=O)c1cc(C2=CCNC2=O)c(-c2cc(C)no2)[nH]1 | inactive: 64.6 µM
10 | COc1ccc2cc(NC(=O)N/N=C\c3ccc([N+](=O)[O-])cc3)ccc2c1 | inactive: > 100 µM
11 | N/C(=N\O)N/N=C/c1cccc(F)c1 | inactive: 27.9 µM
12 | O=c1[nH]nc(Cc2ccccc2)n1-n1cnnc1 | inactive: > 100 µM
13 | Cn1cc(-c2csc(-c3cn(C)c4ccccc34)n2)c2ccccc21 | inactive: 24.5 µM
14 | O=C1/C(=C/c2cccc(Br)c2)Cc2ccccc21 | inactive: 55.1 µM
15 | COc1ccc(NC(=O)C(=O)NNC(=O)c2sc(NNC(C)=O)nc2C)c([N+](=O)[O-])c1 | inactive: > 100 µM
16 | O=c1[nH]c(=O)n(C2CC(O)C(CO)O2)cc1C1=NC1 (centres undefined) | inactive: > 100 µM
17 | O=C1CC2(CCC(O)(c3ccc(Cl)cc3)C(C(=O)c3ccc(Cl)cc3)C2)C(=O)c2ccccc2N1 (centres undefined) | inactive: 16.8 µM
18 | C[C@H](CCC1=NCCN1)[C@H]1CC[C@H]2[C@@H]3CC[C@@H]4C[C@H](O)CC[C@]4(C)[C@H]3C[C@H](O)[C@]12C | inactive: 15.2 µM
19 | NC(=O)c1oc([N+](=O)[O-])c(-c2ccccc2)c1-c1ccccc1 | inactive: 17.4 µM
20 | Cc1ccc(/N=N/C(=N\c2ccc(F)cc2)c2ccc(N(CCC#N)CCC#N)cc2)cc1 | inactive: > 100 µM
21 | NC(=O)c1c2c(cc3c(=O)c4ccccc4[nH]c13)CCCC2 | inactive: > 100 µM
22 | COc1ccc(/C=C2\N=C(N3CCCCC3)NC2=O)cc1 | inactive: > 100 µM
23 | Cc1c(OCc2cccc3ccccc23)ccc2c(O)cc(=S)oc12 | inactive: 31.6 µM
24 | CN1CCN(C2=C(Cl)C(=O)c3c(O)ccc(O)c3C2=O)CC1 | inactive: 1.73 µM

Row | SMILES | GI50
25 | O=C1[C@@H]2C3c4ccccc4C([C@@H]2C(=O)N1c1ccccc1)S3(=O)=O | inactive: > 100 µM
26 | CN(C)c1ccc2c(=O)c3ccccc3oc2n1 | inactive: > 100 µM
27 | CCOC(=O)/C(=C/c1cccc(OC)c1)N(CC)CC | inactive: > 100 µM
28 | O=C(OCC1CCCN2CCCCC12)c1ccncc1 (centres undefined) | inactive: > 100 µM
29 | COc1cc(Nc2nc3cc(C(F)(F)F)ccc3nc2C(=O)O)cc(OC)c1OC | inactive: 37 µM
30 | COC(=O)[C@@H]1CN(C(=O)CCc2ccccc2)C(=O)N1 | inactive: > 100 µM
31 | CN(C(=O)C12C3C4C1C1C2C3C41C#N)C(C)(C)C (centres undefined) | inactive: > 100 µM
32 | COc1ccc(OC)c(C(=O)/C=C/c2cc(O)c(O)cc2F)c1 | active: 0.546 µM
33 | O=C1/C(=C/c2cccs2)NC(=S)N1CN1CCOCC1 | inactive: > 100 µM
34 | CCN(CC)CC(C(=O)Nc1c(C)cccc1C)/C(C)=N/NC(N)=S (centres undefined) | inactive: > 100 µM
35 | COc1ccc(C)cc1NC(=S)C#N | inactive: > 100 µM
36 | CC1(C)CC(C2=NCCO2)CC(C)(C)N1 | inactive: > 100 µM
37 | CCCCCCCC/C=C\CCCCCCC(F)C(=O)O (centres undefined) | inactive: > 12.5 µM
38 | NC(=O)c1cc2ccc(O)cc2o/c1=N/NC(=O)c1ccccc1 | inactive: 83.6 µM
39 | C#CC(C)(C)Oc1cc(O)c2c(=O)c3ccccc3n(C)c2c1 | inactive: > 100 µM
40 | CC(C)(O)/C=C\P(C)(=O)c1ccccc1 (centres undefined) | inactive: > 100 µM
41 | COC(=O)/C(=C(\C)NC(C)=O)c1c(C(=O)OC)[nH]c2ccccc12 | inactive: > 100 µM
42 | Cn1cnc([N+](=O)[O-])c1Sc1n[nH]c(-c2ccc(Cl)cc2)n1 | inactive: 19.9 µM
43 | COc1ccc(C(=O)Oc2c(C#N)sc3c2c(=O)n(-c2ccccc2)c(=S)n3-c2ccccc2)cc1 | inactive: 27.9 µM
44 | CCOC(=O)NC(N(C)C(C(C)C)P(=O)(OCC)OCC)(C(F)(F)F)C(F)(F)F (centres undefined) | inactive: > 100 µM
45 | COC1=CC(=O)c2c(CCNC(=O)OCc3ccccc3)n[nH]c2C1=O | inactive: 19.7 µM
46 | C=O.NNCCc1n[nH]c(=O)n1N | inactive: > 100 µM
47 | Cc1cc(Cl)ccc1NC(=O)CC1SC(NC(=O)c2ccccc2Cl)=NC1=O (centres undefined) | inactive: > 100 µM
48 | C=C[C@H]1CN2CCc3c([nH]c4c([C@@H]5CCCN5C)c(O)ccc34)[C@@H]2C[C@@H]1C[C@H]1c2[nH]c3ccccc3c2CCN1C | inactive: 1.59 µM

Row | SMILES | GI50
49 | COC(=O)c1sc2c(c1C(=O)OC)/C(=N/C(C)(C)C)S/C2=N\C(C)(C)C | inactive: 23.8 µM
50 | COC1CC(OC2C(C)OC(OC3C(C)OC(OC4C(O)CC(O[C@H]5CC[C@@]6(C)C(=CC[C@]7(O)[C@@H]6C[C@@H](OC(=O)/C=C/c6ccccc6)[C@@]6(C)[C@]7(O)CC[C@@]6(O)C(C)=O)C5)OC4C)CC3OC)CC2OC)OC(C)C1O (some centres undefined) | inactive: > 6.25 µM
51 | Nc1nc(Cl)cc(NCC2(CO)CC(CCCc3ccccc3)C2)n1 (centres undefined) | inactive: > 100 µM
52 | Cc1ccc(S(=O)(=O)OC2CCN(C)CC2)cc1 | inactive: > 100 µM
53 | COc1cc(C(O)C(=O)c2cnc3cc([N+](=O)[O-])ccc3n2)ccc1O (centres undefined) | inactive: > 100 µM
54 | COc1cc(/C=N/n2c(-c3ccccc3)n[nH]c2=O)cc(OC)c1OC | inactive: 13.6 µM
55 | Clc1ccc(C2ON=C(c3ccccc3)N2C23CC4CC(CC(C4)C2)C3)c(Cl)c1 (centres undefined) | inactive: > 10 µM
56 | CCOC(=O)C1CCCCN1CCc1c[nH]c2ccccc12 (centres undefined) | inactive: 92.3 µM
57 | C[C@@H]1O[C@@H](O[C@H]2[C@H](Oc3cc(O)c4c(=O)cc(-c5ccc(O)cc5)oc4c3)O[C@H](CO)[C@@H](O)[C@@H]2O)[C@H](O)[C@H](O)[C@H]1O [RHOIFOLIN] | inactive: > 100 µM
58 | N#C/C(=C1\OC(=O)C(c2ccc(Br)cc2)=C1O)c1ccc(Br)cc1 | inactive: 16.4 µM
59 | CCOC(=O)C1=C(O)C(=O)c2cc(OC)ccc2C1=O | inactive: 41.1 µM
60 | Cc1ccccc1NC(=O)C(=O)C(c1cnc2ccc([N+](=O)[O-])cc2n1)[N+](=O)[O-] (centres undefined) | inactive: > 100 µM
61 | Clc1cc2nnn(C3CCCO3)c2cc1Cl (centres undefined) | inactive: > 100 µM
62 | OCC1OC(N2CCN(C3OC(CO)C(O)C(O)C3O)CC2)C(O)C(O)C1O (centres undefined) | inactive: > 100 µM
63 | O=[N+]([O-])C1=Cc2c(O)ccc(O)c2C2OC=CC12 (centres undefined) | inactive: 28.1 µM
64 | COC(=O)/C=C/c1ccc2c(c1)[C@H](C(=O)OC)[C@@H](c1ccc(O)cc1)O2 | inactive: 54.6 µM
65 | COc1ccc(CCNC(=O)Cc2ccccc2CO)cc1OC | inactive: > 100 µM
66 | CCC(CCN)(CCN)[N+](=O)[O-] | inactive: > 100 µM
67 | CCOC(=O)c1csc(NC(=O)CCN2CCN(C)CC2)n1 | inactive: > 100 µM
68 | O=C1NC(c2ccccc2Cl)Nc2ccccc21 (centres undefined) | inactive: 47.9 µM
69 | Nc1ccccc1.O=P(O)(O)c1ccccc1 | inactive: > 100 µM
70 | COc1cc2c(cc1-c1coc3cc(O)ccc3c1=O)OCO2 [CUNEATIN] | inactive: 26.7 µM
71 | CC(C)(C)c1cc(Br)c(O)c(CN(Cc2cc(C(C)(C)C)cc(Br)c2O)C2CCCCC2)c1 | inactive: 16.8 µM
72 | C/C(CC(=O)Nc1ccc(C)c(C)c1)=N\NC(N)=S | inactive: > 100 µM

Row | SMILES | GI50
73 | CC(=O)Oc1cc2c(=O)oc3c(OC(C)=O)c(OC(C)=O)c(OC(C)=O)c4c(=O)oc(c1OC(C)=O)c2c34 | inactive: 49.5 µM
74 | CC(=O)Oc1ccc2c(c1)Oc1cc(C(C)=O)ccc1C21OC(=O)c2ccccc21 (centres undefined) | inactive: > 100 µM
75 | O=C(/C=C/c1ccccc1Cl)c1cccc2ccccc12 | inactive: 15 µM
76 | O=c1c(Nc2ccccc2)cn(CCOc2ccccc2)c(=O)n1CCOc1ccccc1 | inactive: > 100 µM
77 | O=C(O)c1cccc(S(=O)(=O)NN2C(=O)CSC2c2ccccc2Cl)c1 (centres undefined) | inactive: > 100 µM
78 | N=C(CCl)NC1CN2CCC1CC2 (centres undefined) | inactive: > 100 µM
79 | O=[N+]([O-])/C(Cl)=C(\Sc1ccccc1)C(Cl)=C(Cl)Cl | inactive: 1.96 µM
80 | COC(=O)C1=C(C)C(=O)[C@H]2C(C(=O)OC)CCCC[C@@H]12 (some centres undefined) | inactive: > 100 µM
81 | CC/C(C)=C1\OC(=O)C(C)C(O)C(Cc2cccnc2)NC(=O)C(NC(=O)c2ncccc2O)C(C)OC1=O (centres undefined) | inactive: 50.7 µM
82 | CC(=O)C1=C(c2ccccc2)N(C2OC(CO)C(O)C(O)C2O)C(S)=C(C#N)C1c1ccc(Cl)cc1 (centres undefined) | inactive: 35.1 µM
83 | Cc1ccc(S(=O)(=O)ON2C(=O)c3c(N)c(C#N)c(-c4ccccc4)c(-c4ccccc4)c3C2=O)cc1 | inactive: > 100 µM
84 | CNC(=O)SCC(N)C(=O)O (centres undefined) | inactive: > 92.3 µM
85 | CC(=O)OCC1OC(n2c(-c3ccc(C)cc3)cc(-c3ccccc3)c(C#N)c2=O)C(OC(C)=O)C(OC(C)=O)C1OC(C)=O (centres undefined) | inactive: > 100 µM
86 | COc1c(OC)c(OC)c2c(=O)c(OC)c(-c3ccc4c(c3)OCO4)oc2c1OC | inactive: > 100 µM
87 | CN(C)CCCN1c2ccccc2CCc2cc([N+](=O)[O-])ccc21 | inactive: 25 µM
88 | CCN(CCO)CC1CCCC2CCCCC21 (centres undefined) | inactive: > 100 µM
89 | O/N=C1/CCCC/C1=C/C=C/c1ccccc1 | inactive: 20.9 µM
90 | Cc1nc2c(nc1C)C(=O)c1cc(O)ccc1C2=O | inactive: 77.4 µM
91 | C=CCCCCn1c2ccccc2c2c(C)c3c[n+](C)ccc3c(C)c21 | active: 1.06 µM
92 | Cc1cc(OCC(=O)N/N=C/C(Br)=C/c2ccccc2)nc(SCC(=O)N/N=C/C(Br)=C/c2ccccc2)n1 | inactive: > 100 µM
93 | N#Cc1c(Cl)c(C=O)c(=O)n2c1[nH]c1ccccc12 | inactive: 30.6 µM
94 | CN(C)c1ccc(-c2c(C#N)c(-c3ccccc3)n(NS(=O)(=O)c3ccccc3)c(=O)c2C#N)cc1 | inactive: 74.1 µM

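Tested at 5 concentrations; 48 h exposure; 96-well plates; endpoints linearly interpolated, else capped at highest concentration. At the GI50, growth is halved.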 Activity calls are given as the source filed them. Cut-off read from the data, not from the text of the source: active = GI50 up to about 1.1 µM and inactive = higher.
